In the supplement of paper PMC11417369:
± gives the standard deviation of the averaged measurements. The list shows a part of the results.

System: PfAP2-I AP2 domain 3 (GST-tagged)
Assay: gcPBM binding intensity (ln(normalized median fluorescence intensity)); higher = stronger DNA binding
Outline: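 Binding of GST-tagged P. falciparum DNA-binding domains, expressed in E. coli and used at about 25 μg on average, was carried out for 1 h in 1× PBS containing 1% milk, 0.2 mg/ml BSA, 0.5% salmon testes DNA and 0.03% Triton X-100. The target was an Agilent 4 × 180k array of primer-extended double-stranded 36-bp intergenic genomic probes plus negative controls, read with Alexa488 anti-GST antibody at 488 nm. Binding intensity is the highest Masliner-normalised natural-log median intensity across replicate spots of either probe orientation.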

Point of comparison: “TATTACTTAAATAAAAGTACATATAACATTTTAGTT [XGTACX_site196]”, “gcPBM binding intensity (ln)” value 7.62 ± 0.42. Against it:
- TTATCTATAAATACGAGTACGCAAAATCATATAATA [XGTACX_site2447] — within error, 7.91 ± 0.42
- ATATAAGGATAACCTAGTACATATTATATGAAACAA [XGTACX_site8459] — within error, 7.74 ± 0.38
- AAAATAAATAAATAAATATATATATATATATATATA [TGCATGCA_negctrl_site558] — higher, 9.29 ± 0.44
- AAGGGGAAAAAAAAAAGTACACAAACATAGGATAAT [XGTACX_site377] — within error, 7.97 ± 0.61
- CAATTAAAATGCAACGGTACACATAAAAAAAATAAA [XGTACX_site6216] — within error, 8 ± 0.38
- TACGGTAAATAGTGTTGTACGATACAATTGTTTTCT [XGTACX_site8118] — within error, 7.45 ± 0.66
- CCACAAGTATATAGTAGTACAATTTTTTTCTCTTTA [XGTACX_site4403] — within error, 7.75 ± 0.44
- GTATGAAATTATAATAGTACATATAAATAAAAAAAA [XGTACX_site8955] — within error, 7.88 ± 0.67
- TGTATTATATGTAAATGTACATTTAATATTTTATAT [XGTACX_site4461] — within error, 7.78 ± 0.33
- TATATATAATATATATATATGGAAATTCTTTTAAAT [XGTACX_negctrl_site50] — within error, 7.97 ± 0.14
- ACAATATCTAGATACACACACATATCTCTCAATCTA [CACACA_site656] — within error, 7.88 ± 0.52
- TATAATATTCTATATGCATGTACACCATTCTTTATT [TGCATGCA_site688] — within error, 8.02 ± 0.62
- TTTTTTTTTATTTGTTGTACGAGGTTTTAAAATTTT [XGTACX_site106] — within error, 7.88 ± 0.57
- AAAAAGGTTATTGGTACACACATATGTATATAAATA [CACACA_site6402] — within error, 7.78 ± 0.4
- TAATAAAACATATATACACACATTATATATACATAT [CACACA_site8495] — within error, 7.75 ± 0.33
- TATTGTTATCTTTTATGTACTTAAAAAAATAAATTT [XGTACX_site4233] — within error, 7.91 ± 0.26
- GTAGGCATTAAAAAATGTACAAAATATTATGAATTG [XGTACX_site1615] — within error, 7.65 ± 0.55
- GTTAAAAAAAGGAGAGATCTCACACAAATATATATA [GTGCAC_negctrl_site117] — within error, 8.06 ± 0.79
- GGGTGCCAAATTAGCACACACATATATACCTGAATT [CACACA_site5551] — higher, 10.3 ± 0.29
- AATATATATGAAAAAAGTACTCAAGGAATAAAAAAA [XGTACX_site7720] — within error, 8.13 ± 0.74
- CATTTAATAATAACAAGTACACAAAGATGTATAACA [XGTACX_site8315] — within error, 7.74 ± 0.29
- ATGATAAATATAAGTTGTACATATATCTATGTGCAT [XGTACX_site6010] — within error, 7.84 ± 0.53
- CATAAATACTATATATGTACGTAATTTTTAAAACAT [XGTACX_site7710] — within error, 8.12 ± 0.45
- TTACAAATAATTTGTTGTACGCTTTTTTTCTTTTTT [XGTACX_site7199] — within error, 7.7 ± 0.4
- TATATATATATATATGTGCGCATTACTTTAAGAATA — higher, 9.61 ± 0.16
- TTATTTTTTTTTTTTTGTACACAATTTGACACATTA [XGTACX_site7983] — within error, 8.06 ± 0.38
- TTTATTTAATTATGTTGTACATGTAGGATTTATTTT [XGTACX_site7078] — within error, 7.8 ± 0.38
- TAAAAAGTTATATTCACACACATACACATATAAATA [CACACA_site6398] — within error, 7.63 ± 0.47
- AAAAAGGAAATAATAACACACATTAATAATTATAAA [CACACA_site3401] — within error, 7.58 ± 0.62
- TAATAAATAATGGTTACACACAAAATATAAAACTTA [CACACA_site3544] — within error, 7.5 ± 0.32
- AATTATAAATCTTGCACACAAAAAAAATAATAAAAA [CACACA_site2434] — higher, 8.705 ± 0.049
- TAAACACATATATAGACATGCAACTAGTTTTTATAA [TGCATGCA_site474] — within error, 7.54 ± 0.58
- AAATCTTTGTGTGGATGTACTTTTATAAAAAAGAAT [XGTACX_site3830] — within error, 7.91 ± 0.52
- TCTGTTCTTTTTTAATGTACAAGAAATATAAAATTC [XGTACX_site3600] — within error, 7.76 ± 0.37
- AATTTTTAGTATATAACATAAAATAAAATAAAATAA [GTGCAC_negctrl_site696] — within error, 7.97 ± 0.85
- AATAGTTGCTAAAGGTGTACAATACATTTATTAGAA [XGTACX_site2773] — within error, 8.21 ± 0.47
- TCTTTGGTATTTACATGTACATATTCTTAAAAACAT [XGTACX_site3124] — within error, 8.23 ± 0.47
- TGTATAGTCTAAAGTTGTACAAAAAAAAAAAAAAAA [XGTACX_site5764] — within error, 8.07 ± 0.46
- GAAAATAAAATATTAGTGCATTATTTGATCAATAAT — higher, 11.3 ± 0.73
- TATATTTATACTTATACACACATTATTGAATTAACC [CACACA_site934] — within error, 7.73 ± 0.55
- AGTGTAAGCTAAGTGGTGCGTTGAATAAGGTTTTTT [GTGCAC_site9951] — higher, 10.7 ± 0.3
- TATAGGTATTTGTATACACACAAATGTATATATCTA [CACACA_site6713] — within error, 7.47 ± 0.42
- CTTTATATATTTTATTGTACTTAAAAAAAAAAAAAA [XGTACX_site2134] — within error, 8.11 ± 0.42
- AAAAAATATGCATATACACACATATGTATAAATAAC [CACACA_site7090] — within error, 7.92 ± 0.83
- AAAATATTTATTCCTAGTACTTACCATTATATATAT [XGTACX_site363] — within error, 8.21 ± 0.33
- AAAAAAAAATGAAAAGAAAAAAAAAGAAAAAAGGGA [CACACA_negctrl_site287] — within error, 7.67 ± 0.4
- ATTATTTATATTTGGAGTACTTATAATATTTTTATA [XGTACX_site1289] — within error, 8.02 ± 0.17
- TATATATATAATATATGTACTCATATTAAGAGATAC [XGTACX_site1354] — higher, 8.38 ± 0.22
- AAAAAAAAAAAAAACACACACACACGCATACACATA [CACACA_site7364] — within error, 8.46 ± 0.55
- ATAAATAAAACAAATAGTACAATATAAAAAAAAAGG [XGTACX_site87] — within error, 8.13 ± 0.67
- AAGAGGATACACAATGTGCACTTTTTTTTTTTTTTT [GTGCAC_site9415] — higher, 10.045 ± 0.007
- TATACAGATATATATACACACATATATATAAATACA [CACACA_site4383] — within error, 7.54 ± 0.33
- AATGAGCTTTTTAAAAGTACTAAATATAAATAAATA [XGTACX_site3632] — within error, 7.7 ± 0.61
- TATATATGTATATTTTGTACGTATTTATTTACATGA [XGTACX_site4584] — within error, 7.68 ± 0.2
- ATTTTTTTGTTAATTTGTACATAAAATTTTATTTTA [XGTACX_site7007] — within error, 7.97 ± 0.69
- ATATTTATTTTATAAAGTACTAAAAAATATATTATA [XGTACX_site8522] — within error, 7.61 ± 0.4
